Experimental data as given in ChEMBL document CHEMBL5724801, “EUbOPEN Chemogenomics Library - Multiplex” (2024).

Legend:
Type in all cases: toxicity, cell-based
HEK-293T = experiment: Multiplex assay against HEK293T; settings: human
Summary of the method: (§1)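 Cells were classed with CellPathfinder machine-learning gating, first as Hoechst high-intensity objects or normal cells, then (normal cells) as healthy, pyknosed or fragmented nuclei, and finally (pyknosed cells) as mitotic or apoptotic. Staining of live cells at seeding used Hoechst33342, BioTracker Green Microtubule Cytoskeleton Dye, MitoTracker Red and Annexin V Alexa Fluor 680, with imaging on a CQ1 microscope at 37°C and 5% CO2 after compound addition. Tubulin, mitochondrial-mass and membrane-permeability phenotypes are per cents of healthy-nucleus cells.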

Fibroblast = experiment: Multiplex assay against human fibroblast; settings: 24 h; summary of the method: as §1
U2OS = experiment: Multiplex assay against U2OS; settings: human, 10 µM, compound concentration 10 uM; summary of the method: as §1
[1] = 12 h, 1 µM, compound concentration 1 uM
[2] = 48 h, 1 µM, compound concentration 1 uM
[3] = 48 h, 10 µM, compound concentration 10 uM

CN1[C@@H](CC(=O)c2ccccc2)CCC[C@H]1C[C@H](O)c1ccccc1.Cl [LOBELINE HYDROCHLORIDE]
Population Healthy Nuclei (%) (HEK-293T; [1]): 58.64% and 14.18% | Population Tubulin-Different-Phenotype (%) (HEK-293T; [1]): 4.02% and 30% | Population Tubulin-Different-Phenotype (%) (HEK-293T; 12 h, 10 µM, compound concentration 10 uM): 6.99% and 53.12% | Total Cell Count (HEK-293T; 24 h, 1 µM, compound concentration 1 uM): 638 and 149 | Population Pyknosed Nuclei (%) (HEK-293T; [2]): 12.62% and 45.14% | Population Tubulin-Different-Phenotype (%) (HEK-293T; [2]): 1.08% and 34.41% | Total Cell Count (HEK-293T; [2]): 1307 and 175 | Population Apoptotic (%) (HEK-293T; [3]): 5.32% and 24.76% | Population Pyknosed Nuclei (%) (HEK-293T; [3]): 10.68% and 39.62% | Population Tubulin-Different-Phenotype (%) (HEK-293T; [3]): 2.5% and 42.58% | Total Cell Count (HEK-293T; [3]): 880 and 267 | Population Apoptotic (%) (Fibroblast; 1 µM, compound concentration 1 uM): 3.92% and 17.24% | Population Apoptotic (%) (Fibroblast; 10 µM, compound concentration 10 uM): 6.06% and 33.33% | Population Mitochondria Different-Phenotype (%) (U2OS; 12 h): 0% and 30.37% | Population Mitochondria Different-Phenotype (%) (U2OS; 24 h): 0.19% and 19.63% | Total Cell Count (U2OS; 24 h): 592 and 197 | Total Cell Count (U2OS; 48 h): 1082 and 316

Certain results were filed several times, with different values. This is not the full list of results. The source may hold further records. Values that stand side by side are repeated measurements (runs, samples, wells, individuals or studies).
